# Laboratory results as given in PMC4336329 (PLoS ONE, 2015).
# The whole screen tested about 310,000 compounds, of which about 2,200 (0.71%) showed an effect of 50% or more. The effect is printed as a negative number. This is one part of the list.
# Molecular target: human ether-à-go-go-related gene (hERG) potassium channel (human, UniProt Q12809)
# Experiment: primary screen, population patch clamp on CHO cells stably expressing hERG
# human ether-à-go-go-related gene (hERG) potassium channel, sequence (Q12809 whole entry, looked up): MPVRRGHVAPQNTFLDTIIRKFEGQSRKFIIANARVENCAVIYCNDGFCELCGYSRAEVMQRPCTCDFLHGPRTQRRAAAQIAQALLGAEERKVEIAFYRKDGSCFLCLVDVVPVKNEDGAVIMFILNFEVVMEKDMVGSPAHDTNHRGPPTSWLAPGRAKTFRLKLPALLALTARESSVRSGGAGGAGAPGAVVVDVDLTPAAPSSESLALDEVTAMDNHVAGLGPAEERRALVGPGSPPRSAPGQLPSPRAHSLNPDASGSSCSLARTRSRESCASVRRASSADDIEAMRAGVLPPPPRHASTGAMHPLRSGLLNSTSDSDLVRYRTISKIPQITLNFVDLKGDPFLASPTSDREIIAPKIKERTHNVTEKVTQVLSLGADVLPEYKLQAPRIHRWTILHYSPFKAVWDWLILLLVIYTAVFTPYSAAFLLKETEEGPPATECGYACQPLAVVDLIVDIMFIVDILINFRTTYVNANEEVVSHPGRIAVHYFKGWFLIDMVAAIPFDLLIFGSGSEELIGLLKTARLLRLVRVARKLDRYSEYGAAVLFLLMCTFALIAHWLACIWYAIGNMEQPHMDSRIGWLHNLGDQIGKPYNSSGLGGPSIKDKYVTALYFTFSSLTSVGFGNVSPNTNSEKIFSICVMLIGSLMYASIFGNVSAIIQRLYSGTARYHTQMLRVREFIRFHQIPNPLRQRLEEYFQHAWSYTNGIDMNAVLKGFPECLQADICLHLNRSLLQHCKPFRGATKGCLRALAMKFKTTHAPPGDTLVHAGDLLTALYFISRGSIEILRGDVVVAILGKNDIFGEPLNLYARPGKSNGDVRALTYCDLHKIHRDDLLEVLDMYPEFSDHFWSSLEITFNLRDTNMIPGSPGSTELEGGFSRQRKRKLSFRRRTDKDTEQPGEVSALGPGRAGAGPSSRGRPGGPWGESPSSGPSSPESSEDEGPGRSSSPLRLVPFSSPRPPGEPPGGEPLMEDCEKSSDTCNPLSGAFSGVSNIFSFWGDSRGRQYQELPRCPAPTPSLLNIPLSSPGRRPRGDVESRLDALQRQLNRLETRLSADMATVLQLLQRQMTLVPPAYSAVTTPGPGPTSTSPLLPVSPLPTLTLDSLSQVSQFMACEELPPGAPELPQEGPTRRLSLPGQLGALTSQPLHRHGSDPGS
row,Compound,"hERG current change (%, negative = inhibition) at 1uM [%]"
1,COC(=O)c1cccc(NC(=S)Nc2cccc(Cl)c2C)c1,12.3
2,CCOc1cccc2c1OC1(C)CC2NC(=O)N1c1cccc(Cl)c1 (stereo not shown),6.42
3,O=C(COC(=O)c1nc(Cl)ccc1Cl)Nc1ccc(Cl)cc1,10.7
4,COc1ccc(NC(=O)COC(=O)c2ccc3c(c2)OCCO3)cc1OC,8.96
5,CC(C)Cn1cnc2c(c1=N)C(c1ccccc1)C1=C(CC(C)(C)CC1=O)O2 (stereo not shown),-10.7
6,COc1ccc(/C=N/NC(=O)c2cccnc2)cc1CSc1nc2ccccc2s1,3.79
7,CCOC(=O)Cc1csc(NC(=O)CSc2nnc(-n3nc(C)cc3C)c3ccccc23)n1,-21
8,O=C(NCc1cccc(C(F)(F)F)c1)C1CCCN(c2ncccn2)C1 (stereo not shown),-7.15
9,CC(C(=O)Nc1ccc(N(C)C)cc1)N1C(=O)c2ccccc2S1(=O)=O (stereo not shown),12.7
10,C[C@@]12CC(=O)NC1N(C(=O)c1cccc(C(F)(F)F)c1)C(c1ccccc1O)C2 (stereo partly shown),17.4
11,COc1cccc(N2CCN(C(=O)c3cc4ccc(OC)cc4[nH]3)CC2)c1,16
12,CN1C[C@@H]2C[C@@H](c3cccn3-c3ccccn3)N3CCC[C@@]23C1=O,-11.6
13,Cc1ccccc1CN1CCNC(=O)C1CC(=O)NCCC1=CCCCC1 (stereo not shown),10.6
14,Cc1cccc(NC(=O)/C(C#N)=C\c2ccc(C(=O)O)cc2)c1,2.84
15,COc1ccc(-c2cc(C(=O)N3CCCCC3)no2)cc1OC,17.5
16,COc1ccc(NC(=O)CN(C)S(=O)(=O)c2cnc[nH]2)cc1Cl,5.27
17,COc1ccccc1NC(=O)CN(Cc1ccco1)C(=O)c1ccc(Cl)nc1,4.49
18,CCOC(=O)C(C)OC(=O)C1=C(C)NC(=O)NC1c1ccc2c(c1)OCO2 (stereo not shown),7.26
19,O=S1(=O)OCCC(c2ccccc2)N1Cc1ccccc1 (stereo not shown),5.74
20,CCOC(=O)C1CCN(Cc2ccc(Cl)c(Cl)c2)CC1,9.26
21,CC(Nc1ccc2c(c1)OCCO2)C(=O)Nc1ccc2c(c1)OCO2 (stereo not shown),13.8
22,COc1ccc(CCc2nnc(CCC(=O)NCC3CCCO3)o2)cc1 (stereo not shown),15.2
23,O=[N+]([O-])c1ccccc1S(=O)(=O)N1CCN(c2ccccn2)CC1,14.7

row,Compound,"hERG current change (%, negative = inhibition) at 1uM [%]"
1,NC(=O)c1ccccc1OCC(=O)N1CCc2ccccc2C1,6.64
2,COc1ccc(C(=O)Nc2cccc(/C=C(\CCC(=O)O)c3nc4ccccc4s3)c2)cc1,5.81
3,CCC(=O)NC(=S)Nc1cccc(NC(=O)c2ccccc2C)c1,22.9
4,Cc1c(Cl)c(C(F)(F)F)nn1CC(=O)N1CCSCC1,6.45
5,CCOC(=O)Cc1csc(SCC(=O)Nc2nccs2)n1,4.1
6,O=C(NCc1cccnc1)c1ccc(Br)s1,3.57
7,O=C(NCCc1ccccc1)c1ccc2c(=O)[nH]c3c(C(=O)NCC4CCCO4)sc(=S)n3c2c1 (stereo not shown),14
8,CC(C)c1ccc(-c2c(C#N)c(N)nc(SCC(=O)N3CCCCCC3)c2C#N)cc1,8.31
9,COC(=O)c1ccc(NC(=O)CSc2nnc(C)n2CC2CCCO2)cc1 (stereo not shown),5.53
10,CCCC(=O)NCc1ccncc1,14.5
11,CC(C)c1ccc(S(=O)(=O)NC2CCCC2)cc1,9.53
12,CC(=O)c1ccc(N2CCN(C(=S)Nc3ccccc3F)CC2)cc1,15.2
13,Cc1ccc(S(=O)(=O)NCCCCCC(N)=O)cc1,2.58
14,Cc1cccn2c(=O)c3cc(C#N)c(=NC(=O)c4ccccc4)n(Cc4ccco4)c3nc12,-4.91
15,CCCc1cc(=O)oc2cc(C)cc(OCC(=O)Nc3ccc(CN4CCOCC4)cc3)c12,10.4
16,O=C(CCCn1c(=O)oc2ccccc21)N1CCc2ccccc2C1,-4.21
17,CN(C)c1cccc(C(=O)NCc2ccc(Cl)cc2)c1,13.5
18,CCc1ccc(NC(=S)N2CCC(NC(=O)c3ccccc3OC)CC2)cc1,7.54
19,O=C(NCCc1ccccc1)c1ccc(=O)[nH]c1,11.7
20,O=C(NCCCNc1ccc([N+](=O)[O-])cc1Cl)c1ccccc1F,0.379
21,CC1(C)CC(=O)c2cc(OCC(=O)NCCN3CCCc4ccccc43)ccc2O1,-12.8
22,O=C(Cn1cnc2ccc(Br)cc2c1=O)c1cccs1,12.4
23,CCOC(=O)c1nnn(-c2ccc([N+](=O)[O-])cc2)c1C,-0.613

row,Compound,"hERG current change (%, negative = inhibition) at 1uM [%]"
1,CCOC(=O)CSc1nc2ccccc2n1C(=O)OCC,5.05
2,Cc1ccc(CN2CCC(n3nccc3NC(=O)CCOc3ccccc3)CC2)cc1C,-23.3
3,CC(=O)c1ccc(NC(=O)C(C)N(C)CC(=O)Nc2cccc(F)c2)cc1 (stereo not shown),1.4
4,Cc1cc(C(C)(C)C)oc1C(=O)N(CC(=O)NC1CCCC1)c1ccc(F)cc1,12.2
5,CC(=O)c1cccc(CN2CCC(n3nccc3NC(=O)CCc3ccccc3)CC2)c1,2.28
6,CCN(CC(=O)Nc1sc2c(c1C#N)CCCC2)CC(=O)NC1CCS(=O)(=O)C1 (stereo not shown),9
7,COc1ccc(/C=N/n2nnnc2N)c(OC)c1,9.61
8,O=C(OCc1nnc(-c2ccccc2)o1)c1cccc(-n2cnnn2)c1,3.91
9,CCSc1nc2[nH]ncc2c(=O)[nH]1,9.41
10,Cc1ccc2nc(N3C(=O)C(O)=C(C(=O)c4ccc(C)o4)C3c3ccc(O)cc3)sc2c1 (stereo not shown),14.1
11,Cc1noc2ncnc(N3CCCC3)c12,7.2
12,CCCCOC(=O)C(C)Nc1n[nH]c(=S)[nH]c1=O (stereo not shown),3.75
13,Cn1c(C(=O)NCC2CCCO2)cc2c(=O)n(C)c3ccccc3c21 (stereo not shown),8
14,CCOC(=O)c1cnc2ccc(Cl)cc2c1NCCN(C)C,-0.644
15,O=C1NC2(CCCC2)N=C1c1ccc(F)cc1,-9.83
16,Cc1ccc(-c2nnc(NCc3ccccc3)c3ccccc23)cc1,1.62
17,CC(=O)N/C(=C/c1ccc(OC(F)F)cc1)C(=O)O,9.51
18,CC(CC(=O)NC1CCCCC1)S(=O)(=O)c1ccc2c(c1)CCN2C(=O)C1CC1 (stereo not shown),21.8
19,NC(=O)Cc1nc(-c2ccc(Br)cc2)cs1,9.99
20,CCNC(=O)c1ccc(NS(=O)(=O)c2ccccc2)cc1,9.87
21,O=C(Nc1ccc2oc(-c3cccc(F)c3)nc2c1)c1ccccc1F,13.6
22,Cc1ccc(CNC(=O)Nc2ccccc2)n1C,17.5
23,O=C(Cn1ccc2ccccc2c1=O)NCCC(=O)Nc1ccc2c(c1)OCCO2,8.09

row,Compound,"hERG current change (%, negative = inhibition) at 1uM [%]"
1,CCOc1ccc(CCNC(=O)COC(=O)/C=C/c2ccccc2OC)cc1OCC,14
2,Cc1ccc(C(=O)OCC(=O)c2ccc(Cl)s2)s1,5.82
3,O=C1CSC(c2c(F)cccc2Cl)N1c1cccc(F)c1 (stereo not shown),-0.699
4,Cc1ccc(NC(=O)CCC(=O)NNC(=O)c2ccccc2[N+](=O)[O-])c(C)c1,13.2
5,Cc1ccc(NC(=S)Nc2ccc(F)cc2)c(C)c1,-0.309
6,Cc1nc2ccccn2c1C(=O)NNS(=O)(=O)c1ccc(Cl)cc1,10.6
7,COCCN(C(=O)Cc1cccs1)C(C(=O)NCc1ccc(OC)cc1)c1ccc(C)cc1 (stereo not shown),-11.3
8,CC#CC#Cc1cccc(=O)o1,14.3
9,CCN1CCN(c2ccc(NC(=O)c3ccc4c(c3)[nH]c(=O)n4Cc3ccc(OC)cc3)cc2)CC1,11.2
10,Cc1cc(C(=O)N2CCC3(CC2)OCCO3)no1,15.2
11,CC(NC(=O)Cc1ccccc1)c1cc2c(cc1Br)OCCCO2 (stereo not shown),6.49
12,COC(=O)c1ccccc1NC(=O)c1ccc(-c2ccc(Br)cc2)o1,21.4
13,COCc1cc(=O)[nH]c(N2CCN(Cc3ccc4c(c3)OCO4)CC2)n1,3.77
14,CN(C)[C@@H](CO)c1nnc([C@H](Cc2ccc(O)cc2)NC(=O)C2CCNCC2)o1.Cl,5.57
15,COC(=O)C1=C(c2cccc(OC)c2OC)C[C@@H]2CC[C@H]1N2C(=O)NCc1ccc(F)cc1,9.88
16,Cc1cc(C(=O)NNC(=O)c2ccc(Cl)cc2Cl)c(C)o1,-8.85
17,COc1ccc(-c2cc3ccccc3n2CC(O)CN2CCOCC2)cc1 (stereo not shown),2.37
18,Cc1ccc(C)c(NC(=O)Cn2nc(C(F)(F)F)cc2C2CC2)c1,21.2
19,O=C(/C=C/c1ccco1)NCC(=O)N/N=C/c1ccc(Cl)cc1,-18.5
20,COc1ccc(-c2nc(-c3cccc([N+](=O)[O-])c3O)cc(=O)o2)cc1OC,4.37
21,S=C(NCc1cccs1)Nc1cccc(Cl)c1Cl,-1.35
22,CCSc1nnc(NC(=O)C2CCCCC2)s1,-6.46
